Experimental data as given in the supplement of paper PMC11417369.
This is one part of the list.

test system: PfAP2-HC AP2 domain (GST-tagged); assay: gcPBM binding intensity (ln(normalized median fluorescence intensity)); higher = stronger DNA binding
Summary of the method: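 After 1 h on an Agilent 4 × 180k array of primer-extended double-stranded 36-bp intergenic genomic probes and negative controls, bound GST-tagged P. falciparum DNA-binding domains were detected with Alexa488 anti-GST antibody and scanned at 488 nm. The domains had been expressed in E. coli, and binding took place in 1× PBS with 1% milk, 0.2 mg/ml BSA, 0.5% salmon testes DNA and 0.03% Triton X-100. Binding intensity is the highest Masliner-normalised natural-log median intensity across replicate spots of either probe orientation.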

Sequence	gcPBM binding intensity (ln)
ATATGTATGAAGTGTACACATATATTGTATTTTCTT [CACACA_site5503]	9.95
GTAAGCACACATAGTTGTACATTAATAAAAATAAAT [XGTACX_site5876]	9.94
TTCCTATAAAAAAACACACACATATAAATATATATA [CACACA_site2318]	9.92
AAAAAAAACGAACACACACACATTCAATATAAAACA [CACACA_site6170]	10.5
CAATGGTCATTTAGTTGTACTTAATTTTAAATCAAA [XGTACX_site4075]	9.38
ATATATGACAAATGTAGTACAAATTATTGTATCATA [XGTACX_site3675]	9.94
AGAATATTTAAAAAAGGTACACAAAAACCAAAATAA [XGTACX_site8569]	9.76
TTATTGCATATTTACACACGTACTAATTTAAACAAG [CACACA_site971]	9.78
TATTAATACAGACACACACACACACCCAATAAAATA [CACACA_site243]	10.8
ATAAATTCATATATGAGTACTAAAAATATCTTTTTC [XGTACX_site5541]	9.54
GATATTATGTGTTTGGTATTTTTTGATGTTGGTAGG [XGTACX_negctrl_site563]	9.82
TAGAACAAATAAAACACACACATATAAATATAGATG [CACACA_site7325]	10.2
TCTTTCTAAAGATGTAGTACAAAATAAATATAATAT [XGTACX_site6564]	9.45
TTTATACAAACAACTTTATATTAATGTTTAACGGAG [GTGCAC_negctrl_site396]	9.23
AAGGCAAACAAACACACACACATATATACATATATA [CACACA_site2122]	10.4
TTATCACACCTTTTTTGTACGAAATAAAAAAAAAAA [XGTACX_site5564]	9.12
TAATATGCTCATGTAACACACATTTGCATATTTTTC [CACACA_site1357]	9.96
GTGCAAAATATTTTTACACACAAATTCTTACAACAG [CACACA_site7556]	10
ATATCTATGTTTATCTCGAATAACTTAAAAAATTAT [CACACA_negctrl_site1131]	9.58
CATACAGACATACATACACACATACATACAGACATA [CACACA_site6996]	10.5
TGTAAATATATATATACACACACACCGAAGCAATAG [CACACA_site8960]	10.2
TTTTTTTTTTTTTAAACATGCATATTAATATTATAT [TGCATGCA_site820]	9.53
GTATATCACACATTTGCATGTTGTCAATAGTTTATC [TGCATGCA_site134]	9.9

Sequence	gcPBM binding intensity (ln)
TAAAAAGGAAGACACACACACACATATATAAATATA [CACACA_site7657]	10.6
TATATACACATATATAAACACACAAAAAAAAAAAAA [CACACA_site8626]	9.82
ATACAAATTGTTTAAAGTACAAATTACACCTCTTAA [XGTACX_site6888]	9.69
GTATTACAACGACACACACACCTATATATCATAGTA [CACACA_site7877]	10.5
ACATTAAAAAAAAAATGTACATAAATATTTTTCCTT [XGTACX_site4361]	9.51
ATCTTTTATATAAAATGTACAGAGTTTGAAAGAATA [XGTACX_site8826]	9.39
AATTTTATTCATTGAGCACACAAAATAAATTATCAA [CACACA_site9079]	9.49
GCTTAATGTCATATATCACACATGAAAATATATATA [CACACA_site5089]	9.61
TAAATATATTAATACACACACGATATGTACAAAAAA [CACACA_site540]	10.1
TATATATATATATAATGTACATATAATATATTTATT [XGTACX_site7892]	9.54
TGCATATACGCAAGCACACATATATATATATATATA [CACACA_site1069]	9.6
TTTTGATTTCCTATTGCACACTTTTTTTAAGTTTAT [CACACA_site1056]	9.94
ACAGCTACCAGATACTGTACTTTTCTCCAGACTGCA [XGTACX_site2541]	9.5
AATTTATAATTATAGAGTACATATTTTTAATATATA [XGTACX_site2566]	9.42
ATATACACTTAATTTTTTATAAAAAAAAATTTATAT [CACACA_negctrl_site498]	9.34
GTAATAATTTTTTGTAGTACACAAAAATTCATATTT [XGTACX_site2699]	9.7
ATGTGATATAAGTACACACACATATGTATTTATAAC [CACACA_site6942]	10
TATATTTTGTTCTTTCCACACACAAATACATATATT [CACACA_site9348]	10.1
ATATACATAATCTTCTTGCACTTTTTTTTTTTTTTT [GTGCAC_site9410]	9.76
ATTAATTTTAATAAAGGTACACGTAGTTTTTTATTA [XGTACX_site7868]	9.42
TTAAAATTAAAAATGCGTACACATATACATAAAAAA [XGTACX_site1915]	9.81
AACAAAACCTTATATGTACACACATATACATCACAC [CACACA_site9037]	10.3
